Test [1] addresses T1, 재조합 인간 TIGIT 단백질 (Acro Biosystems) (human, UniProt Q495A1 22-141).
T1 construct: Bought recombinant protein; also called recombinant human TIGIT; TIGIT 항원
T1 sequence: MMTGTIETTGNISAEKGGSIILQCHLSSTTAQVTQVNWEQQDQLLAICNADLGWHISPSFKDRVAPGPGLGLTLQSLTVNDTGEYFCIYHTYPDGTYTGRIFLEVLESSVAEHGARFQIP
Description: SPR, Biacore T200 multi-cycle kinetics, 25C; fusion protein captured on anti-human IgG CM5 chip, recombinant human TIGIT as analyte; 1:1 model.

In test [2] the target is T2, IL2RB/IL2RG (PathHunter eXpress Dimerization Cells) (UniProt P14784 27-551; P31785 23-369, limits assumed).
T2 sequence (looked up) 1: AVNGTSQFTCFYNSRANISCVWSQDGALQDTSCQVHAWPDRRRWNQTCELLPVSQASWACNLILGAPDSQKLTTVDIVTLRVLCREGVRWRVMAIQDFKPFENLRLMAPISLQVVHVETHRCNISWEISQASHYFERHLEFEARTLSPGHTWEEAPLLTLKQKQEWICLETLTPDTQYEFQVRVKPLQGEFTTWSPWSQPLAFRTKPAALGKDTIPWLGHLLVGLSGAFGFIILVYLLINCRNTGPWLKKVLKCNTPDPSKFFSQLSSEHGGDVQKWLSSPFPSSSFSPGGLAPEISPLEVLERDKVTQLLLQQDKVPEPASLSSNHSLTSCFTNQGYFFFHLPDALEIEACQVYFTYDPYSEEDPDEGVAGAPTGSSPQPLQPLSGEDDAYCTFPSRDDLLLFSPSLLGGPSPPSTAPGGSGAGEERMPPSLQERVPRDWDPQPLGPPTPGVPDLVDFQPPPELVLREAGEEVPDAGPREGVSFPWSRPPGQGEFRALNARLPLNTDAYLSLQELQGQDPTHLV
T2 sequence (looked up) 2: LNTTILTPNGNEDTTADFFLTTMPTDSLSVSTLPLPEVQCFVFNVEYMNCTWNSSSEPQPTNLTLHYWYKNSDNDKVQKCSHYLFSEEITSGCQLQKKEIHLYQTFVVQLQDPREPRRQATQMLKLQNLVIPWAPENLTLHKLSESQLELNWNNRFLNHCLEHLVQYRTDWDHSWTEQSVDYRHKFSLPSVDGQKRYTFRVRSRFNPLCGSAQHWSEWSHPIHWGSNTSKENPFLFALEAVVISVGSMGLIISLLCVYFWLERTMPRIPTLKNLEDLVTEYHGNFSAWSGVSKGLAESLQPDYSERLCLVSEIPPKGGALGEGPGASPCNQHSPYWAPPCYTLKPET
Description: cell-based or functional assay.

Test [3] addresses T1, 재조합 인간 TIGIT 단백질 (Acro Biosystems). Description: ELISA, plate coated with recombinant human TIGIT, anti-IgG-HRP detection, OD450. A general note: ELISA stands for enzyme-linked immunosorbent assay.

B1: 7A6RS15TL-2 (7A6-RS15.0; 7A6 VH3/Vk5-RS15.0) (other)
heavy: QVQLQESGPGLVKPSQTLSLTCTVTGYSITSDYAWNWIRQPPGKGLEWMGYISYSGSARYNPSLKSRVTISRDTSKNQFSLKLSSVTAEDTATYYCARKGYPAYFAYWGQGTLVTVSSASTKGPSVFPLAPSSKSTSGGTAALGCLVKDYFPEPVTVSWNSGALTSGVHTFPAVLQSSGLYSLSSVVTVPSSSLGTQTYICNVNHKPSNTKVDKRV[sequence of human IgG1 Fc not given]
light: DIQMTQSPSSLSASVGDRVSITCKASQDVSTAVAWYQQKPGQAPRLLIYSASYRYTGVPDRFSGSGSGTDFTLTISSLQPEDFATYYCQHHYSTPYTFGQGTKLEIKRTVAAPSVFIFPPSDEQLKSGTASVVCLLNNFYPREAKVQWKVDNALQSGNSQESVTEQDSKDSTYSLSSTLTLSKADYEKHKVYACEVTHQGLSSPVTKSFNRGECEAAAKEAAAKEAAAKITCPPPMSVEHADIWVKSYSLYSRERYICNSGFKRKAGTSSLTECVLNKATNVAHWTTPSLKCIRDPALVHQRPAPPSGGSGGGGSGGGSGGGGSLQ[sequence of about 120 residues not given]
notes: Antibody-cytokine fusion
The Kd is the equilibrium constant for the complex coming apart. The term koff denotes the rate constant with which the complex falls apart. The kon is the second-order rate constant of association. For B1, in test [1], the Kd worked out at 0.756 nM, the koff amounted to 0.00179 s⁻¹ and the kon was determined as 2.37e+06 M⁻¹ s⁻¹. In test [2], the “IL2RB/IL2RG 이량체화 (PathHunter eXpress Dimerization Assay, 화학발광) EC50” value amounted to 0.248 nM.

B2: 7A6RS15TL-2DL-2 (7A6-RS15.1; 7A6 VH3/Vk5-RS15.1) (other)
heavy: B1 heavy
light: DIQMTQSPSSLSASVGDRVSITCKASQDVSTAVAWYQQKPGQAPRLLIYSASYRYTGVPDRFSGSGSGTDFTLTISSLQPEDFATYYCQHHYSTPYTFGQGTKLEIKRTVAAPSVFIFPPSDEQLKSGTASVVCLLNNFYPREAKVQWKVDNALQSGNSQESVTEQDSKDSTYSLSSTLTLSKADYEKHKVYACEVTHQGLSSPVTKSFNRGECEAAAKEAAAKEAAAKITCPPPMSVEHADIWVKSYSLYSRERYICNSGFKRKAGTSSLTECVLNKATNVAHWTTPSLKCIRDPALVHQRPAPPGGGGSGGGGSGGGGS[sequence of about 120 residues not given]
notes: Antibody-cytokine fusion
With B2, the binding result in test [3] is listed as “binds”.

B3: 7A6RS15TL-2DL-4 (7A6-RS15.5; 7A6 VH3/Vk5-RS15.5) (other)
heavy: B1 heavy
light: DIQMTQSPSSLSASVGDRVSITCKASQDVSTAVAWYQQKPGQAPRLLIYSASYRYTGVPDRFSGSGSGTDFTLTISSLQPEDFATYYCQHHYSTPYTFGQGTKLEIKRTVAAPSVFIFPPSDEQLKSGTASVVCLLNNFYPREAKVQWKVDNALQSGNSQESVTEQDSKDSTYSLSSTLTLSKADYEKHKVYACEVTHQGLSSPVTKSFNRGECEAAAKEAAAKEAAAKITCPPPMSVEHADIWVKSYSLYSRERYICNSGFKRKAGTSSLTECVLNKATNVAHWTTPSLKCIRDPALVHQRPAPPSGGGGSGGGSGGGGGSGGGSG[sequence of about 120 residues not given]
notes: Antibody-cytokine fusion
As for B3, in test [3], the binding result was “binds”.

B4: 7A6RS15TL-2DL-0 (7A6-RS15.3; 7A6 VH3/Vk5-RS15.3) (other)
heavy: B1 heavy
light: DIQMTQSPSSLSASVGDRVSITCKASQDVSTAVAWYQQKPGQAPRLLIYSASYRYTGVPDRFSGSGSGTDFTLTISSLQPEDFATYYCQHHYSTPYTFGQGTKLEIKRTVAAPSVFIFPPSDEQLKSGTASVVCLLNNFYPREAKVQWKVDNALQSGNSQESVTEQDSKDSTYSLSSTLTLSKADYEKHKVYACEVTHQGLSSPVTKSFNRGECEAAAKEAAAKEAAAKITCPPPMSVEHADIWVKSYSLYSRERYICNSGFKRKAGTSSLTECVLNKATNVAHWTTPSLKCIRDPALVHQRPAPPGSGGGGSGGGGSIQ[sequence of about 120 residues not given]
notes: Antibody-cytokine fusion
As for B4, the binding result in test [3] was “binds”.

B5: 7A6RS15TL-2DL-3 (7A6-RS15.4; 7A6 VH3/Vk5-RS15.4) (other)
heavy: B1 heavy
light: DIQMTQSPSSLSASVGDRVSITCKASQDVSTAVAWYQQKPGQAPRLLIYSASYRYTGVPDRFSGSGSGTDFTLTISSLQPEDFATYYCQHHYSTPYTFGQGTKLEIKRTVAAPSVFIFPPSDEQLKSGTASVVCLLNNFYPREAKVQWKVDNALQSGNSQESVTEQDSKDSTYSLSSTLTLSKADYEKHKVYACEVTHQGLSSPVTKSFNRGECEAAAKEAAAKEAAAKITCPPPMSVEHADIWVKSYSLYSRERYICNSGFKRKAGTSSLTECVLNKATNVAHWTTPSLKCIRDPALVHQRPAPPSGGGGSGGGSGGGGGSGG[sequence of about 120 residues not given]
notes: Antibody-cytokine fusion
As for B5, the binding result in test [3] is “binds”.

B6: 7A6RS15TL-2DL-1 (7A6-RS15.2; 7A6 VH3/Vk5-RS15.2) (other)
heavy: B1 heavy
light: DIQMTQSPSSLSASVGDRVSITCKASQDVSTAVAWYQQKPGQAPRLLIYSASYRYTGVPDRFSGSGSGTDFTLTISSLQPEDFATYYCQHHYSTPYTFGQGTKLEIKRTVAAPSVFIFPPSDEQLKSGTASVVCLLNNFYPREAKVQWKVDNALQSGNSQESVTEQDSKDSTYSLSSTLTLSKADYEKHKVYACEVTHQGLSSPVTKSFNRGECEAAAKEAAAKEAAAKITCPPPMSVEHADIWVKSYSLYSRERYICNSGFKRKAGTSSLTECVLNKATNVAHWTTPSLKCIRDPALVHQRPAPPGSGGGGSGGGGSLQ[sequence of about 120 residues not given]
notes: Antibody-cytokine fusion
As for B6, in test [3], the binding result is “binds”.

B7: 3F8-RS15 (3F8-RS15.0) (other)
heavy: EVQLQQSGPELVKPGASMKISCKASGYSFTDYIMNWVKQSHGKNLEWIGLSIPYNGGTSYNQKFEGKATLTVDKSSSTAYMELLSLTSEDSAVYYCARGIKGYFAMDYWGQGTSVTVSSASTKGPSVFPLAPSSKSTSGGTAALGCLVKDYFPEPVTVSWNSGALTSGVHTFPAVLQSSGLYSLSSVVTVPSSSLGTQTYICNVNHKPSNTKVDKRV[sequence of human IgG1 Fc not given]
light: DVVVTQTPLSLPVSFGDQVSISCRSSQSLVNSFGKTYLSWFLHKPGQSPQLIMYGVSNRFSGVPDRFSGSGSGTDFTLKISTIKPEDLGMYYCLQGTHQPWTFGGGTKLEIKRTVAAPSVFIFPPSDEQLKSGTASVVCLLNNFYPREAKVQWKVDNALQSGNSQESVTEQDSKDSTYSLSSTLTLSKADYEKHKVYACEVTHQGLSSPVTKSFNRGECEAAAKEAAAKEAAAKITCPPPMSVEHADIWVKSYSLYSRERYICNSGFKRKAGTSSLTECVLNKATNVAHWTTPSLKCIRDPALVHQRPAPPSGGSGGGGSGGGSGGGGSLQ[sequence of about 120 residues not given]
notes: Antibody-cytokine fusion
On to B7, for which, in test [1], the Kd stood at 1.14 nM, the koff came out at 0.000216 s⁻¹ and the kon was 189000 M⁻¹ s⁻¹.

B8: 2B7-RS15 (2B7-RS15.0) (other)
heavy: EVQLQQSGPELVKPGASVKISCKTSGSTFTEYTMHWVKQSHGKSLEWIGGLNPNNGGTSYNQRFKDRATLTVDKSSSTAYMELRSLTSEDSAVYYCTRGTYYDYSFAYWGQGTLVTVSAASTKGPSVFPLAPSSKSTSGGTAALGCLVKDYFPEPVTVSWNSGALTSGVHTFPAVLQSSGLYSLSSVVTVPSSSLGTQTYICNVNHKPSNTKVDKRV[sequence of human IgG1 Fc not given]
light: DIVMTQSHKFMSTSVGDRVSITCKASHYVSTAVAWYQQKPGQSPKLLIYSPSYRYTGVPDRFTGSGSGTDFTFTISSVQAEDLAVYYCHQHYSTPWTFGGGTKLEIKRTVAAPSVFIFPPSDEQLKSGTASVVCLLNNFYPREAKVQWKVDNALQSGNSQESVTEQDSKDSTYSLSSTLTLSKADYEKHKVYACEVTHQGLSSPVTKSFNRGECEAAAKEAAAKEAAAKITCPPPMSVEHADIWVKSYSLYSRERYICNSGFKRKAGTSSLTECVLNKATNVAHWTTPSLKCIRDPALVHQRPAPPSGGSGGGGSGGGSGGGGSLQ[sequence of about 120 residues not given]
notes: Antibody-cytokine fusion
For the molecule B8, in test [1], the Kd was determined as 1.48 nM, the koff is 0.000386 s⁻¹ and the kon came out at 261000 M⁻¹ s⁻¹.

For the origin of these results see KR20230171885A (dated 2023).
